According to patent US20230201183A1, “METHODS TO […] ENHANCE MULTIPLE […] PROTEOSTASIS […] TO TREAT NEURODEGENERATION AND STORAGE DISEASES” (Northwestern University, priority 2021, published 2023):

Tested on: H4 α-syn overexpressing cells
Settings: higher concentrations or longer incubation periods

Question: With `O=C1CN(/N=C/c2ccc(-c3ccc([N+](=O)[O-])cc3)o2)C(O)=N1` [DANT, 1-[(E)-[5-(4-nitrophenyl)furan-2-yl]methylideneamino]imidazolidine-2,4-dione] as the compound, how does the cell toxicity read?
Answer: observed cell toxicity
